The whole screen tested about 45,000 compounds, of which about 65 (0.1%) were called active. The call rests on the fitted dose curve; in most records, active means well fitted activation curve with a large enough effect; inconclusive means small, poorly fitted or top-dose-only effect; inactive means no such curve, though single readings can be large or run the other way. The list shows a part of the results.
Target: Galactocerebrosidase (Homo sapiens) (UniProt P54803)
Assay: A Novel Cell-Based Assay to Identify Small Molecules for B -Galactocerebrosidase; further: 0% is about no effect; nearly all actives have a fitted effect of over 65% in size
Conditions: 145M-Twi-hGALC-G270D cells (Twitcher mouse brain line with human GALC G270D), HMU-beta-Gal fluorescence, 48 h; series mostly up to 57.5 µM; activation: at the top concentration
Method in brief: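 Fluorogenic HMU-b-Gal hydrolysis (0.1 mM final, pH 5.2 citrate-phosphate with 1 mg/mL sodium taurocholate; carbonate stop buffer) measures mutant GALC activity after compound treatment of live 145M-Twi Twitcher brain cells stably carrying human GALC-G270D, with wild-type GALC line alongside; activation sought.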

Sequence of UniProt P54803 (P54803 whole entry, looked up): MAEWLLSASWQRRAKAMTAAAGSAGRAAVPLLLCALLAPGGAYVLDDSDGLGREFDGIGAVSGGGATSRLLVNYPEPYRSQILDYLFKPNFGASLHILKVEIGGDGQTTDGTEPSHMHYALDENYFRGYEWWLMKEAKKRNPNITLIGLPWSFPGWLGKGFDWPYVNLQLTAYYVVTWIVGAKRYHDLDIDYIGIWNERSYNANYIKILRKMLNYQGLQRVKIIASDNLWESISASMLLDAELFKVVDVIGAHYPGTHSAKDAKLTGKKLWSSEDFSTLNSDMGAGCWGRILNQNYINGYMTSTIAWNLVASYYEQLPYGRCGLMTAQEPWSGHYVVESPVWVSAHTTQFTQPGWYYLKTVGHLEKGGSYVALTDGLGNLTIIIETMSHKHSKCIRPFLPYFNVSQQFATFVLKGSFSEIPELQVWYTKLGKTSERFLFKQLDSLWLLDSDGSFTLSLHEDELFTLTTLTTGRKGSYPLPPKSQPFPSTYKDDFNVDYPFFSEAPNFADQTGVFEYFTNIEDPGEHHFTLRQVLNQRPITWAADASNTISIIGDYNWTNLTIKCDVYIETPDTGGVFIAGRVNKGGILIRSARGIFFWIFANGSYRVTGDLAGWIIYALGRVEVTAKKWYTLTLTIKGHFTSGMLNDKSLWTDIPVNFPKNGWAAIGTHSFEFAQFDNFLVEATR

Structure (SMILES)	activation
CCOc1ccc(-c2nonc2NC(=O)c2oc3cc(C)ccc3c2C)cc1OCC	inactive: -20.3%
CCOC(=O)C1CCCN(C(=O)c2ccc3c(c2)sc2nc(-c4ccc(C)cc4C)cn23)C1 (stereo unspecified)	inactive: -17.3%
Cc1ccc(CN(Cc2ccco2)C(=O)COc2cccc(C)c2C)o1	inactive: -6.54%
O=C(Nc1nc2n(n1)C(c1ccccc1)C=C(c1ccc(Cl)cc1)N2)c1ccco1 (stereo unspecified)	inactive: -9.83%
COc1cccc(Cn2c(SCc3ccc(C(=O)N4CCCCC4)cc3)nc3ccncc32)c1	inactive: -2.81%
Cc1cc(Cl)ccc1NC(=O)CN1C(=O)COc2ccc(S(=O)(=O)Nc3ccccc3)cc21	inactive: -9.48%
CCOC(=O)c1cnc2c(ccc3ccccc32)c1Nc1cccc(Cl)c1	inactive: -20.3%
COc1ccc(CCNC(=O)c2cnc3sc(N4CCOCC4)nn3c2=O)cc1	inactive: -11.5%
CCOc1ccc(CNC(=O)C2CCN(c3nc4ccccc4nc3C(F)(F)F)CC2)cc1OC	inactive: -12.9%
CCc1c(C)sc2c1CCN(Cc1ccccc1C#N)C2c1ccccc1 (stereo unspecified)	inactive: -17.9%
CC1CCN(c2oc(-c3cccs3)nc2S(=O)(=O)c2ccccc2)CC1	inactive: -13.9%
COc1ccc(-n2cc(-c3ccc4c(c3)OCO4)n(CC(=O)Nc3cc(Cl)ccc3C)c2=O)cc1	inactive: -22.6%
COc1ccc(-n2nc3ccc(NC(=O)c4cccc(OCCC(C)C)c4)cc3n2)cc1	inactive: -19.4%
Cc1nn(C)c2c1c(-c1ccccc1)cc(=O)n2Cc1ccc(F)cc1	inactive: -14.2%
COc1ccc(-c2nc3sc(CCNC(=O)Cc4ccccc4)c(C)n3n2)cc1	inactive: -14.1%
COc1ccc(C2=NS(=O)(=O)N(C)C(C(=O)NC(C)c3ccccc3)=C2)cc1 (stereo unspecified)	inactive: -9.44%
COc1ccc(C)cc1NC(=O)c1nnn(Cc2cccc(Br)c2)c1N	inactive: -17.8%
COc1ccc(CNC(=O)c2cnc(N3CCCC3)nc2C)c(OC)c1	inactive: -16.5%
COc1ccccc1CNC(=O)C(NS(=O)(=O)c1ccc2c(c1)CCN2C(C)=O)C(C)C (stereo unspecified)	inactive: -11.3%
Cc1ccc(NC(=O)CCC(=O)N2Cc3ccccc3Oc3ncccc32)cc1Cl	inactive: -11.5%
CCOC(=O)c1cnc2ccc(OC)cc2c1Nc1ccc(OCc2ccccc2Cl)cc1	inactive: -21.9%
CCc1ccc(C(=O)c2cn(CC(=O)Nc3cc(OC)ccc3OC)c3ccc(Cl)cc3c2=O)cc1	inactive: -10.1%
CCCS(=O)(=O)N1CCC(n2c(C)nc3cccnc32)CC1	inactive: -17.7%
CCN(CC)S(=O)(=O)c1ccc2c(c1)N(CC(=O)NCCCN1CCN(c3ccc(OC)cc3)CC1)C(=O)CO2	inactive: -7.75%
Cc1ccc2oc(C(=O)Nc3ccc(S(=O)(=O)N4CCCCC4C)cc3)cc(=O)c2c1 (stereo unspecified)	inactive: -10.5%
CCOC(=O)c1cc(-c2ccccc2)n(CCC(=O)NCCc2ccccc2)c1C	inactive: -14.2%

Source: PubChem BioAssay AID1159614 (National Center for Advancing Translational Sciences (NCATS), 2016)
